These results are taken from paper PMC12820563, “FoxP3 forms a head-to-head dimer in vivo and stabilizes its multimerization on adjacent microsatellites”.

The other results are listed elsewhere or left out.

The assay addresses T1, MBP-FoxP1dN (Mus musculus, UniProt P58462 326-579).
T1 sequence: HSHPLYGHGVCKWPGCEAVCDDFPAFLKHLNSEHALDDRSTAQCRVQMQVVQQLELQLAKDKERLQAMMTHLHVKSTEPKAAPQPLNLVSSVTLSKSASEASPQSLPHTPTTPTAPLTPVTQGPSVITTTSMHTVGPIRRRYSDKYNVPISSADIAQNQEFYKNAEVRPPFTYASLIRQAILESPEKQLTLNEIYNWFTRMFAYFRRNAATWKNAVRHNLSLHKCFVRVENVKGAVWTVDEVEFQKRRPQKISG
Kind of assay: PD-seq (MBP pull-down with sequencing); 20 mM Tris-HCl pH 7.5, 100 mM NaCl, 1.5 mM MgCl2, 0.4 uM protein, 0.1 uM dsDNA library, 30 min, room temperature, amylose pull-down; high values mean tight binding. The note with it: protein: recombinant; tags: His6-MBP; chain copies: 2; dsDNA, one strand shown. The essentials:
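E. coli-expressed mouse FoxP3 or FoxP1 fragment, N-terminus removed and tagged with His6-MBP, was used at 0.4 µM against 0.1 µM of a Klenow-filled degenerate double-stranded DNA library. After 30 min at room temperature in Tris pH 7.5 buffer with NaCl and MgCl2, complexes were pulled down on amylose resin and washed three times. Binding is pull-down over input reads-per-million enrichment from pooled replicates of the proteinase K-released, PCR-barcoded, Illumina-sequenced DNA.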
Regarding “GATGATTGTTCTCCCAGCTGATGAATTTTCCCGGTCGAGTAAACAAATTTTCCTAATCTTTCTGTTCAAGCGCCATCTAC”, the binding signal is 0.777 RPM ratio (pull-down/input).
Take “GATGATTGTTCTCCCAGCTGATGAATTGATAGTATCGAGTAAACAAATTTTCCTAATCTTTCTGTTCAAGCGCCATCTAC”: the binding signal was 1.12 RPM ratio (pull-down/input).
To “GATGATTGTTCTCCCAGCTGATGAATTAAACTGCTCGAGTAAACAAATTTTCCTAATCTTTCTGTTCAAGCGCCATCTAC” belongs 0.867 RPM ratio (pull-down/input).
The value for “GATGATTGTTCTCCCAGCTGATGAATTTAAAGTTTCGAGTAAACAAATTTTCCTAATCTTTCTGTTCAAGCGCCATCTAC” was 0.904 RPM ratio (pull-down/input).
To “GATGATTGTTCTCCCAGCTGATGAATTTAGGAAGTCGAGTAAACAAATTTTCCTAATCTTTCTGTTCAAGCGCCATCTAC” belongs 0.879 RPM ratio (pull-down/input); to “GATGATTGTTCTCCCAGCTGATGAATTCTACCGTTCGAGTAAACAAATTTTCCTAATCTTTCTGTTCAAGCGCCATCTAC”, 0.873 RPM ratio (pull-down/input).
On to “GATGATTGTTCTCCCAGCTGATGAATTATATATCTCGAGTAAACAAATTTTCCTAATCTTTCTGTTCAAGCGCCATCTAC”, for which the binding signal was 1.05 RPM ratio (pull-down/input).
The value for “GATGATTGTTCTCCCAGCTGATGAATTACGACTTTCGAGTAAACAAATTTTCCTAATCTTTCTGTTCAAGCGCCATCTAC” was 1.09 RPM ratio (pull-down/input).
“GATGATTGTTCTCCCAGCTGATGAATTAACACTTTCGAGTAAACAAATTTTCCTAATCTTTCTGTTCAAGCGCCATCTAC”: the binding signal is 1.06 RPM ratio (pull-down/input).
“GATGATTGTTCTCCCAGCTGATGAATTCCGCTAATCGAGTAAACAAATTTTCCTAATCTTTCTGTTCAAGCGCCATCTAC”: the binding signal was 0.88 RPM ratio (pull-down/input).
The value for “GATGATTGTTCTCCCAGCTGATGAATTCAAGGAGTCGAGTAAACAAATTTTCCTAATCTTTCTGTTCAAGCGCCATCTAC” was 0.767 RPM ratio (pull-down/input); that for “GATGATTGTTCTCCCAGCTGATGAATTCCTCTCGTCGAGTAAACAAATTTTCCTAATCTTTCTGTTCAAGCGCCATCTAC” was 0.81 RPM ratio (pull-down/input); that for “GATGATTGTTCTCCCAGCTGATGAATTTCAGGTCTCGAGTAAACAAATTTTCCTAATCTTTCTGTTCAAGCGCCATCTAC” was 0.752 RPM ratio (pull-down/input).
The value for “GATGATTGTTCTCCCAGCTGATGAATTAATGATGTCGAGTAAACAAATTTTCCTAATCTTTCTGTTCAAGCGCCATCTAC” was 1.2 RPM ratio (pull-down/input); that for “GATGATTGTTCTCCCAGCTGATGAATTTGTCGTGTCGAGTAAACAAATTTTCCTAATCTTTCTGTTCAAGCGCCATCTAC” was 1.16 RPM ratio (pull-down/input); that for “GATGATTGTTCTCCCAGCTGATGAATTTCGATTTTCGAGTAAACAAATTTTCCTAATCTTTCTGTTCAAGCGCCATCTAC” was 1.02 RPM ratio (pull-down/input).
The value for “GATGATTGTTCTCCCAGCTGATGAATTGTCTGCCTCGAGTAAACAAATTTTCCTAATCTTTCTGTTCAAGCGCCATCTAC” was 0.999 RPM ratio (pull-down/input); that for “GATGATTGTTCTCCCAGCTGATGAATTGCTGGTATCGAGTAAACAAATTTTCCTAATCTTTCTGTTCAAGCGCCATCTAC” was 1.02 RPM ratio (pull-down/input).
As for “GATGATTGTTCTCCCAGCTGATGAATTACCAGCTTCGAGTAAACAAATTTTCCTAATCTTTCTGTTCAAGCGCCATCTAC”, the binding signal was 0.956 RPM ratio (pull-down/input).
The value for “GATGATTGTTCTCCCAGCTGATGAATTCGGTGGCTCGAGTAAACAAATTTTCCTAATCTTTCTGTTCAAGCGCCATCTAC” was 0.824 RPM ratio (pull-down/input); that for “GATGATTGTTCTCCCAGCTGATGAATTGCCGTGCTCGAGTAAACAAATTTTCCTAATCTTTCTGTTCAAGCGCCATCTAC” was 0.904 RPM ratio (pull-down/input); that for “GATGATTGTTCTCCCAGCTGATGAATTCTGGAAGTCGAGTAAACAAATTTTCCTAATCTTTCTGTTCAAGCGCCATCTAC” was 0.804 RPM ratio (pull-down/input).
To “GATGATTGTTCTCCCAGCTGATGAATTGACAGTCTCGAGTAAACAAATTTTCCTAATCTTTCTGTTCAAGCGCCATCTAC” belongs 1.1 RPM ratio (pull-down/input); to “GATGATTGTTCTCCCAGCTGATGAATTCAATTTTTCGAGTAAACAAATTTTCCTAATCTTTCTGTTCAAGCGCCATCTAC”, 0.905 RPM ratio (pull-down/input).
The value for “GATGATTGTTCTCCCAGCTGATGAATTGTATCGCTCGAGTAAACAAATTTTCCTAATCTTTCTGTTCAAGCGCCATCTAC” was 1.1 RPM ratio (pull-down/input).
Consider “GATGATTGTTCTCCCAGCTGATGAATTCACCTTCTCGAGTAAACAAATTTTCCTAATCTTTCTGTTCAAGCGCCATCTAC”, for which the binding signal is 0.88 RPM ratio (pull-down/input).
To “GATGATTGTTCTCCCAGCTGATGAATTAGGCCATTCGAGTAAACAAATTTTCCTAATCTTTCTGTTCAAGCGCCATCTAC” belongs 0.929 RPM ratio (pull-down/input); to “GATGATTGTTCTCCCAGCTGATGAATTGGGTTTTTCGAGTAAACAAATTTTCCTAATCTTTCTGTTCAAGCGCCATCTAC”, 0.971 RPM ratio (pull-down/input).
To “GATGATTGTTCTCCCAGCTGATGAATTACCTCACTCGAGTAAACAAATTTTCCTAATCTTTCTGTTCAAGCGCCATCTAC” belongs 0.949 RPM ratio (pull-down/input); to “GATGATTGTTCTCCCAGCTGATGAATTAATCTTATCGAGTAAACAAATTTTCCTAATCTTTCTGTTCAAGCGCCATCTAC”, 0.932 RPM ratio (pull-down/input).
The value for “GATGATTGTTCTCCCAGCTGATGAATTGTAAGCTTCGAGTAAACAAATTTTCCTAATCTTTCTGTTCAAGCGCCATCTAC” was 1.07 RPM ratio (pull-down/input).
